{"source": "PubChem BioAssay AID686971", "about": "(National Center for Advancing Translational Sciences (NCATS), 2013)", "note": "Screen size: about 360,000 compounds; about 7,500 (2.1%) were called active. Inconclusive results, whose numbers are uncertain, are shown with a selection of clear calls. Calls follow the shape of the dose curve; as a rule, active = well fitted cell-killing curve with a large enough effect; inconclusive = small, poorly fitted or top-dose-only effect, or effect the other way, or another doubt; inactive = no such curve, though single readings can be large or run the other way. Potencies of inconclusive entries are left out as doubtful fits. Potency is read from the fitted curve at half-maximal effect; tags tell the direction and shape of the fitted curve.", "data": [{"test": "qHTS for induction of synthetic lethality in tumor cells producing 2HG: qHTS for the HT-1080-IDH1KD cell line", "details": "HT-1080 IDH1 knockdown viability, ATP luminescence, 48 h; series mostly up to 46.1 µM", "procedure,_shortened": "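Cytotoxicity counter-line: IDH1KD HT-1080, 48 h, CellTiter-Glo. Curves classed by r2, magnitude and activity.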", "values": [{"smiles": "COc1cc2nc(N(CCCN(C)C)C(=O)c3ccc(S(=O)(=O)N4CCc5ccccc54)cc3)sc2cc1OC", "Potency": "inconclusive [cytotoxic, partial curve]"}, {"smiles": "Cc1ccc(NC(=S)NNc2ncc(C(F)(F)F)cc2Cl)c(C)c1", "Potency": "inconclusive [cytotoxic, single point]"}, {"smiles": "O=C(NNC(=S)Nc1ccccc1)c1ccccc1[N+](=O)[O-]", "Potency": "inactive"}, {"smiles": "Cc1ccc(-c2nn3c(C)nnc3c3ccccc23)cc1S(=O)(=O)NC(C)c1ccccc1", "note": "(stereo not drawn)", "Potency": "inconclusive [cytotoxic, partial curve]"}, {"smiles": "Cc1noc(C)c1NC(=O)N(C)C[C@@H]1OCc2cn(nn2)CCCC(=O)N([C@H](C)CO)C[C@H]1C", "Potency": "inactive"}, {"smiles": "COc1cc(/C=N/NC(=O)CN2CCCCC2)ccc1OCc1ccc(Br)cc1", "Potency": "inconclusive [cytotoxic, single point]"}, {"smiles": "Cc1nn(C(C)(C)C)c(OC(=O)C2CCCC2)c1S(=O)(=O)c1ccccc1", "Potency": "inconclusive [cytotoxic, single point]"}, {"smiles": "COc1ccc(-c2cc(C(=O)NCc3ccc(C(F)(F)F)cc3)[nH]n2)c(C)c1", "Potency": "inconclusive [cytotoxic, single point]"}, {"smiles": "COc1ccc2nc(SCC(=O)Nc3ccc(S(=O)(=O)N4CCCC4)cc3)c(C#N)cc2c1", "Potency": "inconclusive [cytotoxic, single point]"}, {"smiles": "CCCNc1c(NS(=O)(=O)c2c(F)c(F)c(F)c(F)c2F)c(=O)oc2ccccc12", "Potency": "inconclusive [cytotoxic, single point]"}, {"smiles": "Cc1cccc(C2NC(=O)c3c(sc(C)c3C)N2)c1O", "note": "(stereo not drawn)", "Potency": "inactive"}, {"smiles": "COCC(=O)Nc1ccc(OCc2ccccc2)cc1", "Potency": "inactive"}, {"smiles": "CCOC(=O)CSC1=NC(=O)/C(=C/c2ccc(Br)cc2)S1", "Potency": "inconclusive [cytotoxic, single point]"}, {"smiles": "Cc1cccc(-c2cnc(C(O)c3ccc(Cl)cc3C)[nH]2)c1", "note": "(stereo not drawn)", "Potency": "inconclusive [cytotoxic, single point]"}, {"smiles": "CC1CCCC(N2CCN(C(=O)c3ccc([N+](=O)[O-])cc3)CC2)C1", "note": "(stereo not drawn)", "Potency": "inactive"}, {"smiles": "COC(=O)c1ccc(Nc2cc(C)nc3ccc(C)cc23)cc1", "Potency": "active: 23.1 µM"}, {"smiles": "O=C(Nc1ccc(C(=O)N2CCOCC2)cc1)Nc1cccc(C(F)(F)F)c1", "Potency": "inactive"}, {"smiles": "N#Cc1ccc(C(=O)N2CCCCC2c2cc(C(=O)Nc3cccc(C#N)c3)no2)cc1", "note": "(stereo not drawn)", "Potency": "inactive"}, {"smiles": "CCN(CC)CCNC(=O)c1ccc(NC(=O)c2cc(-c3ccncc3)nc3ccccc23)cc1", "Potency": "inconclusive [cytotoxic, single point]"}, {"smiles": "O=C(CCN1CCc2ccccc2C(c2ccccc2)C1)c1ccc2c(c1)OCCO2", "note": "(stereo not drawn)", "Potency": "inconclusive [cytotoxic, single point]"}, {"smiles": "COc1ccc2nc(SCC(=O)NC3CCCCC3C)[nH]c2c1", "note": "(stereo not drawn)", "Potency": "inconclusive [cytotoxic, single point]"}, {"smiles": "CC(C)N(C(=O)[C@H]1C[C@H](CC(=O)NCc2cccc(C(F)(F)F)c2)C(=O)N2CCc3c([nH]c4cc(-c5ccco5)ccc34)[C@]12C)C(C)C", "Potency": "inconclusive [cytotoxic, single point]"}, {"smiles": "O=C(CSc1ncnc2nc[nH]c12)c1ccc2ccccc2c1", "Potency": "inconclusive [cytotoxic, partial curve]"}, {"smiles": "COc1ccccc1N1CCN(S(=O)(=O)CCNC(=O)c2cc(OC)c(OC)c(OC)c2)CC1", "Potency": "inconclusive [cytotoxic, single point]"}, {"smiles": "CC(C)(C)c1ccc(C(=O)NC(=S)N2CCCCCC2)cc1", "Potency": "inconclusive [cytotoxic, single point]"}, {"smiles": "N#CCCN1CCCc2cc(N=Nc3ccc(C(F)(F)F)cc3)ccc21", "Potency": "inconclusive [cytotoxic, single point]"}, {"smiles": "O=C(Nc1ccc(C2SCCS2)cc1)c1ccccc1", "Potency": "inactive"}, {"smiles": "COCCCN1CC(=O)N2C(c3cccc(OC)c3OC)c3[nH]c4ccccc4c3C[C@H]2C1=O", "note": "(stereo partly drawn)", "Potency": "inactive"}, {"smiles": "CC(C)(C)NC(=O)COC(=O)c1ccccc1Oc1ccccc1", "Potency": "inactive"}, {"smiles": "Cn1cc(/C=N/n2cnc3scc(-c4ccccc4)c3c2=O)c2ccccc21", "Potency": "inconclusive [cytotoxic, full curve]"}, {"smiles": "CCCCCc1ccc(S(=O)(=O)NCCc2ccncc2)cc1", "Potency": "inconclusive [cytotoxic, single point]"}, {"smiles": "COc1ccc(NC(=O)Cc2c(SC)c3ccccc3n2Cc2ccccc2)cc1", "Potency": "inconclusive [cytotoxic, single point]"}, {"smiles": "CC1CCc2sc(C(=O)NC3CCN(Cc4ccccc4)CC3)cc2C1", "note": "(stereo not drawn)", "Potency": "inconclusive [cytotoxic, single point]"}, {"smiles": "C[C@@H]1CN([C@H](C)CO)C(=O)c2cccc(NC(=O)Nc3ccc(F)cc3)c2O[C@H]1CN(C)C(=O)Nc1ccc(C(F)(F)F)cc1", "Potency": "inconclusive [cytotoxic, single point]"}, {"smiles": "C[C@@]12C(=O)Nc3cc(F)c(F)cc3C(=O)N1[C@H]1c3cc(Cl)ccc3OC[C@@H]1[C@@H]2c1ccccc1", "Potency": "inconclusive [cytotoxic, partial curve]"}, {"smiles": "O=C1O[C@@H](c2ccccc2)C[C@@H](O)[C@H](O)CCCCc2ccccc21", "Potency": "inconclusive [cytotoxic, single point]"}, {"smiles": "CN1CCN(c2ccccc2NC(=O)c2ccc(-c3ccc(Br)cc3)o2)CC1", "Potency": "active: 2.59 µM"}, {"smiles": "CC12C=CC(=O)C=C1CCC1C3CCC(O)(C(=O)CO)C3(C)CC(O)C12F", "note": "(stereo not drawn)", "Potency": "inconclusive [rising, full curve, poor fit]"}, {"smiles": "O=C(NCC1CCCO1)c1ccc(S(=O)(=O)N2CCC(c3nc4ccc(Cl)cc4[nH]3)CC2)cc1", "note": "(stereo not drawn)", "Potency": "inconclusive [cytotoxic, partial curve]"}, {"smiles": "CCN(CC)c1ccc(/C=N/NC(=O)c2nnn(-c3nonc3N)c2C(C)C)c(O)c1", "Potency": "active: 1.3 µM"}, {"smiles": "CSc1nc2c(c(-c3ccc(O)cc3)c1C#N)CCC2", "Potency": "inconclusive [cytotoxic, single point]"}, {"smiles": "Cc1ccc2nc(N(CCCN(C)C)C(=O)c3ccc(Br)s3)sc2c1", "Potency": "inconclusive [cytotoxic, single point]"}, {"smiles": "Cc1cccc(/C=N/NC(=O)c2ccccc2OCc2cccc(Br)c2)n1", "Potency": "inconclusive [cytotoxic, single point]"}, {"smiles": "O=C1c2cccc3cc([N+](=O)[O-])cc(c23)C(=O)N1CC1CCCO1", "note": "(stereo not drawn)", "Potency": "inactive"}, {"smiles": "COc1ccc(C2CC(C)=NN2C=O)cc1OC", "note": "(stereo not drawn)", "Potency": "inactive"}, {"smiles": "O=C1c2[nH]nc(-c3ccccc3O)c2C(c2cccc(Cl)c2)N1Cc1ccco1", "note": "(stereo not drawn)", "Potency": "inconclusive [cytotoxic, single point]"}, {"smiles": "CCN(CC)CC(=O)N1c2ccccc2CCc2ccc(NC(=O)c3cc(OC)c(OC)c(OC)c3)cc21", "Potency": "inconclusive [cytotoxic, partial curve]"}, {"smiles": "CCn1c(SCC(=O)NC2=NCCS2)nnc1C(C)NC(=O)c1ccc(Cl)cc1", "note": "(stereo not drawn)", "Potency": "inactive"}, {"smiles": "CCOC(=O)C(C)Sc1nc(-c2ccccn2)ncc1OC", "note": "(stereo not drawn)", "Potency": "inactive"}, {"smiles": "CC(C)CCNC1=CC(=O)CC(c2ccccc2)C1", "note": "(stereo not drawn)", "Potency": "inconclusive [cytotoxic, single point]"}, {"smiles": "CCCCC/C=C/C1=CC(=O)C[C@H](c2ccc(OC)c(OC)c2)C1", "Potency": "inactive"}, {"smiles": "O=C(Nc1c(-c2ccc(Cl)cc2)[nH][nH]c1=O)c1ccccc1Cl", "Potency": "inactive"}, {"smiles": "O=c1c2c(nc3c(-c4ccc(Cl)cc4)c[nH]n13)CCCC2", "Potency": "active: 7.08 µM"}, {"smiles": "CCOC(=O)C1CCN(C(=O)c2cc3c(-c4ccc(OC)c(OC)c4)nn(C)c3s2)CC1", "Potency": "inactive"}, {"smiles": "COc1ccc(/C=C/C(=O)OCC(=O)NC(=O)NC(C)(C)C)cc1", "Potency": "inactive"}, {"smiles": "Cn1c(=O)oc2cc(S(=O)(=O)N3CCCC(C(=O)Nc4ccc5c(c4)OCCO5)C3)ccc21", "note": "(stereo not drawn)", "Potency": "inactive"}, {"smiles": "CCOC(=O)c1c(-c2ccc(C)cc2C)csc1NC(=O)CSc1nnnn1C", "Potency": "inconclusive [cytotoxic, single point]"}, {"smiles": "COc1ccc(C2C=C(C34CC5CC(CC(C5)C3)C4)NC(=S)N2)cc1OC", "note": "(stereo not drawn)", "Potency": "inactive"}, {"smiles": "FC(F)(F)c1ccc(C2[C@H]3CN(Cc4cccnc4)[C@H](c4ccccc4)C34CC2(c2ccccc2)C4)cc1", "note": "(stereo partly drawn)", "Potency": "inconclusive [cytotoxic, single point]"}, {"smiles": "CC(NCc1ccco1)C(=O)N1CCc2ccccc2C1", "note": "(stereo not drawn)", "Potency": "inconclusive [rising, partial curve, poor fit]"}, {"smiles": "CC1CCCCN1S(=O)(=O)c1ccc(C(=O)Nc2nnc(-c3ccccc3Cl)o2)cc1", "note": "(stereo not drawn)", "Potency": "active: 8.2 µM"}, {"smiles": "Cc1cccc(C)c1N1CCN(C(c2ccnc3ccccc23)c2nnnn2-c2ccc3c(c2)OCCO3)CC1", "note": "(stereo not drawn)", "Potency": "inconclusive [cytotoxic, single point]"}, {"smiles": "Cc1ccc(-c2nnn(CC(=O)Nc3cccc4c3CCCC4)n2)o1", "Potency": "inconclusive [cytotoxic, single point]"}, {"smiles": "CN(C)c1ccc(CN(C(=O)c2ccccc2Br)C2CCS(=O)(=O)C2)cc1", "note": "(stereo not drawn)", "Potency": "inactive"}, {"smiles": "CC(=O)c1ccc(NC(=O)CCc2nnc3ccc(N4CCC5(CC4)OCCO5)nn23)cc1", "Potency": "inactive"}, {"smiles": "COc1cccc(C(C)(O)c2nc(-c3ccccc3)cs2)c1", "note": "(stereo not drawn)", "Potency": "inconclusive [cytotoxic, single point]"}, {"smiles": "CCC1CCC(N2CCN(c3ccc([N+](=O)[O-])cc3)CC2)CC1", "note": "(stereo not drawn)", "Potency": "inconclusive [cytotoxic, single point]"}, {"smiles": "OC1(C#Cc2c(-c3ccsc3)oc3ccc(N4CCOCC4)cc23)CCCCC1", "Potency": "inconclusive [cytotoxic, partial curve]"}]}]}
